Reference: patent US20240376128A1, “N-CYCLOPROPYLPYRIDO [4, 3-D] PYRIMIDIN-4-AMINE DERIVATIVES AND USES THEREOF” (Jacobio Pharmaceuticals Co., Ltd., priority 2021, published 2024)

Key:
Assay in all cases: Phospho-ERK1/2(THR202/TYR204) HTRF assay
Type in all cases: cell-based
[1] = system: RERF-LC-Ad1 cell line (K-Ras G12A); settings: RERF-LC-Ad1 cells (K-Ras G12A), 2 hours incubation; read-out: p-ERK, IC50(nM) RERF-LC-Ad1
[2] = system: TCC-PAN2 cell line (K-Ras G12R); settings: TCC-PAN2 cells (K-Ras G12R), 2 hours incubation; read-out: p-ERK, IC50(nM) TCC-PAN2
[3] = system: AGS cell line (K-Ras G12D); settings: Homo sapiens; AGS cells (K-Ras G12D), 2 hours incubation; read-out: p-ERK, IC50(nM) AGS

C#Cc1c(F)ccc2cc(O)cc(-c3ncc4c(N(C)[C@@H]5C[C@H]5F)nc(OC[C@@]56CCCN5C[C@H](OC)C6)nc4c3F)c12 (mixture of isomers) [Compound 5, 5-ethynyl-6-fluoro-4-(8-fluoro-4-((trans-2-fluorocyclopropyl)(methyl)amino)-2-(((2R,7aS)-2-methoxytetrahydro-1H-pyrrolizin-7a(5H)-yl)methoxy)pyrido[4,3-d]pyrimidin-7-yl)naphthalen-2-ol]
IC50 [1]: 20 nM | IC50 [2]: 780 nM | IC50 [3]: 13.8 nM
